# The supplement of paper PMC9446081
# About 220 (0.56%) of roughly 39,000 compounds showed activity. This is one part of the list.
# System: Escherichia coli K-12 BW25113
# Assay: relative growth (OD600 normalised to plate interquartile mean) (fraction); higher = less growth inhibition, active = 0.2 or less
# Details: 50 µM; LB; incubation time: overnight (16-24 h)
# 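Further: static incubation at 37 °C against the wild-type strain, values averaged over two biological replicates.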
row,Structure (SMILES),relative growth
1,C[C@@H]1CCCCO[C@H](CN(C)C(=O)Nc2ccc(C(F)(F)F)cc2)[C@@H](C)CN([C@H](C)CO)C(=O)c2cc(NS(=O)(=O)c3cn(C)cn3)ccc2O1,inactive: 0.977
2,COCC(=O)N1C[C@@H](C)[C@@H](OC)CN(C)C(=O)c2cc(NC(=O)c3ccc(OC)cc3)ccc2OC[C@@H]1C,inactive: 1.02
3,COc1ccc(C#Cc2ccc3c(c2)O[C@H](CN(C)C(C)=O)[C@H](C)CN([C@H](C)CO)S3(=O)=O)cc1,inactive: 1.04
4,CC(C)NC(=O)c1cccc2cccc(Sc3ccccc3)c12,inactive: 1.04
5,CCC(=O)Nc1ccc2c(c1)C(=O)N(C)C[C@H](OC)[C@@H](C)CN(C(=O)CN1CCOCC1)[C@@H](C)CO2,inactive: 1
6,CN(C)c1ccc2nc3ccc(N(C)C)cc3[s+]c2c1.O.[Cl-],inactive: 0.934
7,CCS(=O)(=O)N1CC[C@]2(CC1)CN([C@H](CO)c1[nH]c3cc(ccc3c12)OC)C(=O)Cc1ccccn1,inactive: 0.993
8,C[C@H]1CN([C@@H](C)CO)C(=O)c2cccc(NC(=O)NC3CCCCC3)c2O[C@H]1CN(C)C(=O)Nc1ccc(C(F)(F)F)cc1,inactive: 0.828
9,C[C@H]1CN([C@@H](C)CO)C(=O)c2cc(C#CCN(C)C)cnc2O[C@@H]1CN(C)Cc1cccc(C(=O)O)c1,inactive: 1.01
10,C[C@H](CO)N1C[C@H](C)[C@@H](CN(C)CC2CC2)OCCCC[C@H](C)Oc2ccc(NC(=O)Nc3ccc4c(c3)OCO4)cc2C1=O,inactive: 0.99
11,O=C(C[C@@H]1CC[C@@H](NC(=O)CN2CCOCC2)[C@H](CO)O1)NCCc1ccncc1,inactive: 1
12,C[C@H]1CN([C@@H](C)CO)C(=O)c2cc(-c3cccc(C(=O)N(C)C)c3)cnc2O[C@H]1CN(C)S(=O)(=O)c1cccc(F)c1,inactive: 1.01
13,Cc1noc(C)c1NC(=O)N[C@H]1CC[C@@H](CC(=O)NCCCN(C)C)O[C@@H]1CO,inactive: 1.05
14,CCc1nc2ccc(C(=O)Nc3cc(-c4ccccc4)ccc3OC)cn2c1N(C)CCCc1ccccc1,inactive: 1.03
15,C[C@@H]1CN([C@H](C)CO)C(=O)c2cc(NS(=O)(=O)c3ccc(F)cc3)ccc2O[C@@H]1CN(C)C(=O)Nc1ccc(C(F)(F)F)cc1,inactive: 0.964
16,CC(C)NC(=O)N(C)C[C@@H]1Oc2ccc(NC(=O)Nc3ccc4c(c3)OCO4)cc2C(=O)N([C@H](C)CO)C[C@H]1C,inactive: 0.985
17,CO[C@H]1CN(C)C(=O)c2ccc(NS(C)(=O)=O)cc2OC[C@H](C)N(C(=O)c2ccc3c(c2)OCO3)C[C@@H]1C,inactive: 1
18,Cc1noc(C)c1NC(=O)N(C)C[C@H]1Oc2c(NS(C)(=O)=O)cccc2C(=O)N([C@@H](C)CO)C[C@H]1C,inactive: 1.03
19,COc1ccc(NC(=O)Nc2ccc3c(c2)C(=O)N([C@@H](C)CO)C[C@@H](C)[C@@H](CN(C)C(=O)Nc2c(C)noc2C)OCCCC[C@@H](C)O3)cc1,inactive: 1
20,C[C@H]1CN([C@@H](C)CO)C(=O)c2cccc(NC(=O)C3CCOCC3)c2O[C@H]1CN(C)Cc1ccc(Oc2ccccc2)cc1,inactive: 1.03

row,Structure (SMILES),relative growth
1,COc1c(C)cnc2c1c(=O)n(CC(N)=O)c(=O)n2C,inactive: 0.999
2,C[C@@H]1CN([C@@H](C)CO)C(=O)c2cccc(NC(=O)Nc3ccc(F)cc3)c2O[C@@H]1CN(C)Cc1ccc(C(=O)Nc2ccccc2N)cc1,inactive: 1.01
3,COc1ccc(NC(=O)Nc2ccc3c(c2)C(=O)N([C@@H](C)CO)C[C@@H](C)[C@@H](CN(C)C(=O)Nc2cccc4ccccc24)OCCCC[C@@H](C)O3)cc1,inactive: 1.05
4,C[C@H](CO)N1C[C@H](C)[C@H](CN(C)S(C)(=O)=O)Oc2c(NS(=O)(=O)c3ccc(F)cc3)cccc2C1=O,inactive: 1.01
5,CNCc1cc2ccccc2s1,inactive: 0.996
6,C[C@H]1CCCCO[C@H](CN(C)Cc2ccc(Cl)c(Cl)c2)[C@@H](C)CN([C@@H](C)CO)C(=O)c2cc(NC(=O)Nc3ccc4c(c3)OCO4)ccc2O1,inactive: 1.03
7,COC(=O)/C=C/c1ccc(C(=O)NCC(=O)N[C@@H](CCC(=O)OC)C(=O)N[C@@H](CC(C)C)C(N)=O)cc1,inactive: 0.994
8,C[C@@H]1CCCCO[C@H](CN(C)S(=O)(=O)c2ccc(F)cc2)[C@@H](C)CN([C@H](C)CO)C(=O)c2cc(NC(=O)Nc3ccc(F)cc3)ccc2O1,inactive: 0.933
9,C[C@@H](NC(=O)N(C)C[C@H]1OCc2ccccc2-c2c(n(C)c3ccccc23)C(=O)N([C@@H](C)CO)C[C@@H]1C)c1ccccc1,inactive: 1.02
10,COc1ccc(S(=O)(=O)N(C)C[C@@H]2Oc3ncc(-c4ccccc4)cc3C(=O)N([C@H](C)CO)C[C@@H]2C)cc1,inactive: 1.02
11,C[C@H](CO)N1C[C@H](C)[C@H](CN(C)C(=O)Nc2ccc(C(F)(F)F)cc2)OCCCC[C@H](C)Oc2ccc(NS(=O)(=O)c3ccccc3)cc2C1=O,inactive: 1.03
12,CC(C)CC#Cc1ccc2c(c1)O[C@@H](CN(C)C(=O)C1CCOCC1)[C@H](C)CN([C@H](C)CO)S2(=O)=O,inactive: 0.986
13,COc1ccc(CN(C)C[C@@H]2Oc3ccc(NS(=O)(=O)c4cn(C)cn4)cc3CC(=O)N([C@@H](C)CO)C[C@H]2C)cc1,inactive: 0.913
14,CC(=O)N1CCN(c2ccc(OCC3COC(Cn4ccnc4)(c4ccc(Cl)cc4Cl)O3)cc2)CC1 (centres undefined),inactive: 0.954
15,CN(C)CCC=C1c2ccccc2CCc2ccccc21.Cl,inactive: 0.976
16,O=C(C[C@@H]1CC[C@@H](NC(=O)Cc2ccccn2)[C@@H](CO)O1)NCCCN1CCOCC1,inactive: 1
17,CC1(N)CCN(c2cnc(-c3cccc(Cl)c3Cl)c(N)n2)CC1,inactive: 0.986
18,COc1ccc(S(=O)(=O)Nc2ccc3c(c2)C(=O)N([C@@H](C)CO)C[C@H](C)[C@H](CN(C)S(=O)(=O)c2ccc(F)cc2)O3)cc1,inactive: 1
19,COc1ccc(NC(=O)Nc2ccc3c(c2)C(=O)N([C@H](C)CO)C[C@H](C)[C@@H](CN(C)C(=O)Nc2ccc(F)cc2)OCCCC[C@@H](C)O3)cc1,inactive: 1
20,COc1cccc(C#Cc2ccc3c(c2)O[C@@H](CN(C)C(C)=O)[C@@H](C)CN([C@@H](C)CO)S3(=O)=O)c1,inactive: 1.05

row,Structure (SMILES),relative growth
1,C[C@H](CO)N1C[C@H](C)[C@H](CN(C)Cc2ccc(Oc3ccccc3)cc2)Oc2ccc(NC(=O)CCCN(C)C)cc2C1=O,inactive: 0.964
2,C[C@H](CO)N1C[C@H](C)[C@H](CN(C)Cc2ccncc2)Oc2ccc(NC(=O)CCN3CCOCC3)cc2CC1=O,inactive: 0.961
3,O=c1ncccn1[C@@H]1O[C@H](CO)[C@@H](O)[C@H]1O,inactive: 0.722
4,Cc1ccc(S(=O)(=O)N(C)C[C@@H]2Oc3ccc(NC(=O)Nc4cccc5ccccc45)cc3C(=O)N([C@H](C)CO)C[C@@H]2C)cc1,inactive: 1.02
5,Cc1cccc(NC(=O)Nc2ccc3c(c2)C(=O)N(C)[C@@H]2CC[C@H](CC(=O)NCc4ccccc4Cl)O[C@@H]2CO3)c1,inactive: 1.03
6,O=C(O)C1=CCNCC1,inactive: 1.02
7,C[C@H](CO)N1C[C@H](C)[C@@H](CN(C)Cc2ccncc2)Oc2ccc(NS(=O)(=O)c3ccc(F)cc3)cc2CC1=O,inactive: 1.01
8,C[C@@H]1CN([C@@H](C)CO)C(=O)Cc2cc(NC(=O)Nc3ccccc3)ccc2O[C@H]1CN(C)Cc1ccc(-c2ccccc2)cc1,inactive: 0.998
9,C[C@H](CO)N1C[C@H](C)[C@@H](CN(C)C(=O)c2ccccc2)OCCCC[C@H](C)Oc2ccc(NC(=O)Cc3ccccc3)cc2C1=O,inactive: 1.02
10,CC(C)NC(=O)N[C@H]1C=C[C@H](CC(=O)NCCN2CCCC2)O[C@H]1CO,inactive: 0.998
11,C[C@@H]1CCCCO[C@H](CN(C)S(=O)(=O)c2ccc(Cl)cc2)[C@@H](C)CN([C@@H](C)CO)C(=O)c2cc(NS(=O)(=O)c3ccc(Cl)cc3)ccc2O1,inactive: 1.01
12,C[C@@H]1CN([C@H](C)CO)C(=O)c2cc(NC(=O)Nc3cccc4ccccc34)ccc2O[C@@H]1CN(C)S(=O)(=O)c1ccc(F)cc1,inactive: 1.02
13,C[C@H](CO)N1C[C@H](C)[C@H](CN(C)C(=O)CN(C)C)Oc2cc(C#Cc3ccc(F)cc3)ccc2S1(=O)=O,inactive: 0.971
14,CC(C)NC(=O)N(C)C[C@H]1Oc2ccc(NS(=O)(=O)c3ccc(Cl)cc3)cc2CC(=O)N([C@H](C)CO)C[C@H]1C,inactive: 0.988
15,CC[C@H]1OC(=O)[C@H](C)[C@@H](O[C@H]2C[C@@](C)(OC)[C@@H](O)[C@H](C)O2)[C@H](C)[C@@H](O[C@@H]2O[C@H](C)C[C@H](N(C)C)[C@H]2O)[C@](C)(OC)C[C@@H](C)C(=O)[C@H](C)[C@@H](O)[C@]1(C)O,active: 0.0351
16,C[C@@H]1CCCCO[C@@H](CN(C)Cc2ccc(C(F)(F)F)cc2)[C@H](C)CN([C@H](C)CO)C(=O)c2cc(NC(=O)Nc3ccccc3)ccc2O1,inactive: 0.998
17,O=C(Oc1ccc(Cl)cc1)c1sc2ccccc2c1Cl,inactive: 1.05
18,COc1ccc(NC(=O)N(C)C[C@@H]2OCCCC[C@@H](C)Oc3ccc(NC(=O)Nc4ccc5c(c4)OCO5)cc3C(=O)N([C@H](C)CO)C[C@@H]2C)cc1,inactive: 1.03
19,COc1ccc(NC(=O)Nc2ccc3c(c2)C(=O)N([C@H](C)CO)C[C@@H](C)[C@H](CN(C)C(=O)NC2CCCCC2)OCCCC[C@@H](C)O3)cc1,inactive: 1
